Reference: patent US20260232820A1 (MEDICENNA THERAPEUTICS, published 2026)

Target: T1, mouse PD-1 on Mouse PD-1 T&U Effector Cells (mouse, UniProt Q02242 25-288)
T1 sequence (looked up): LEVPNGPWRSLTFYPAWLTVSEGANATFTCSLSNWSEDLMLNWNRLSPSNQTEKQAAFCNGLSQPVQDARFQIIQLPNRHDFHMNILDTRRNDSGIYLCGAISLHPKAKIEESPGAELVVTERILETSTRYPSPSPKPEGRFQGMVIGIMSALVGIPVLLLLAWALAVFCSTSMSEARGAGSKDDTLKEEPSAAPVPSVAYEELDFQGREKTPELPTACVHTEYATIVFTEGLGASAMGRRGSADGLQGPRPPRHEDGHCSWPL
Experiment: cell-based or functional assay

B1: Anti-mPD1-MDNA132.15 (1:1 KIH) (other)
heavy 1: EVQLQESGPGLVKPSQSLSLTCSVTGYSITSSYRWNWIRKFPGNRLEWMGYINSAGISNYNPSLKRRISITRDTSKNQFFLQVNSVTTEDAATYYCARSDNMGTTPFTYWGQGTLVTVSSASTKGPSVFPLAPSSKSTSGGTAALGCLVKDYFPEPVTVSWNSGALTSGVHTFPAVLQSSGLYSLSSVVTVPSSSLGTQTYICNVNHKPSNTKVDKKVEPKSCDKTHTCPPCPAPELLGGPSVFLFPPKPKDTLMISRTPEVTCVVVDVSHEDPEVKFNWYVDGVEVHNAKTKPREEQYASTYRVVSVLTVLHQDWLNGKEYKCKVSNKALPAPIEKTISKAKGQPREPQVYTLPPCRDELTKNQVSLWCLVKGFYPSDIAVEWESNGQPENNYKTTPPVLDSDGSFFLYSKLTVDKSRWQQGNVFSCSVMHEALHNHYTQKSLSLSPGGGGGSGGGGSGGGGSPGPVPPSTAHRELIRELVNITQNQKAPLCNGSMVWSINLTAGMYCAALESLINVSGCSAIEKTQRMLSGFCPHKVSAGQFSSLHVTGRKIEVAQFVKDLLLHLKKLFKEGQFN
heavy 2: EVQLQESGPGLVKPSQSLSLTCSVTGYSITSSYRWNWIRKFPGNRLEWMGYINSAGISNYNPSLKRRISITRDTSKNQFFLQVNSVTTEDAATYYCARSDNMGTTPFTYWGQGTLVTVSSASTKGPSVFPLAPSSKSTSGGTAALGCLVKDYFPEPVTVSWNSGALTSGVHTFPAVLQSSGLYSLSSVVTVPSSSLGTQTYICNVNHKPSNTKVDKKV[letters of human IgG1 Fc with changes not shown]
light: DIVMTQGTLPNPVPSGESVSITCRSSKSLLYSDGKTYLNWYLQRPGQSPQLLIYWMSTRASGVSDRFSGSGSGTDFTLKISGVEAEDVGIYYCQQGLEFPTFGGGTKLELKRTVAAPSVFIFPPSDEQLKSGTASVVCLLNNFYPREAKVQWKVDNALQSGNSQESVTEQDSKDSTYSLSSTLTLSKADYEKHKVYACEVTHQGLSSPVTKSFNRGEC
- EC50, mouse PD-1/PD-L1 Blockade Bioassay (RLU of NFAT-luciferase reporter against concentration, 4-parameter logistic curve): 6 nM
